# Test results taken from PubChem BioAssay AID624296 (National Center for Advancing Translational Sciences (NCATS), 2012).
# Among all 350,000 compounds or so, about 9,900 (2.8%) were called active. The shares of active, inactive and inconclusive entries below differ from those in the screen. Calls follow the shape of the dose curve; as a rule, active = well fitted activation curve with a large enough effect; inconclusive = small, poorly fitted or top-dose-only effect; inactive = no such curve, though single readings can be large or run the other way. No potency is given beside an inconclusive call; the fits are too rough.
# Assay: A quantitative high throughput screen for small molecules that induce DNA re-replication in MCF 10a normal breast cells. Also: nearly all actives have a fitted effect of over 50% in size.
# Details: MCF 10A DNA re-replication, Hoechst nuclear intensity, 48 h; series mostly up to 46.1 µM
# Potency is read from the fitted curve at half-maximal effect; tags tell the direction and shape of the fitted curve.
row,Structure (SMILES),Potency
1,COc1ccc(OC)c(NC(=O)CN2C(=O)CSc3ccc(S(=O)(=O)N4CCCC4)cc32)c1,"inconclusive [activator, full curve]"
2,CN(/N=C/c1cc(Cl)cc(Cl)c1O)C(=S)NC(C)(C)C,"inconclusive [activator, single point]"
3,COc1ccc(Cl)cc1NC(=O)C1Cc2ccccc2CN1S(C)(=O)=O (configuration not stated),"inconclusive [activator, single point]"
4,CCc1ccc(NC(=O)Cn2c3[n+](c4c(F)c(F)ccc42)CCCCC3)cc1,"inconclusive [activator, single point]"
5,CCOC(=O)Nc1cccc(OCC(=O)Nc2ccc(OC)cc2OC)c1,inactive
6,COc1cccc(NC(=O)c2cccs2)c1,inactive
7,NC(=O)C(F)(F)C12OC3C4C5CC(C6C5C3C61)C42 (configuration not stated),active: 20.6 µM
8,N=C1S/C(=C\c2ccc(-c3cccc(Cl)c3)o2)C(=O)N1c1nccs1,"inconclusive [activator, full curve, poor fit]"
9,COc1ccc(-c2cc(C(=O)Nc3ccc(S(=O)(=O)Nc4onc(C)c4C)cc3)c3ccccc3n2)cc1OC,"inconclusive [activator, partial curve, poor fit]"
10,COc1ccc(C(=O)N/N=C/c2ccccc2OC(=O)c2ccccc2)cc1,"inconclusive [activator, single point]"
11,Cc1cc(Cl)ccc1OCCCC(=O)N1CCCCC1,"inconclusive [activator, partial curve, poor fit]"
12,COc1ccc(N2CCN(C(CNC(=O)C(=O)NCCCO)c3ccco3)CC2)cc1 (configuration not stated),"inconclusive [activator, single point]"
13,COc1ccccc1N1CCN(C(=O)/C=C/c2cccc([N+](=O)[O-])c2)CC1,inactive
14,O=C(CCS(=O)(=O)c1ccc(F)cc1)Nc1nnc(-c2ccco2)o1,"inconclusive [activator, single point]"
15,O=C(Nc1cccc(NC(=O)c2ccc(-c3cccc(Br)c3)o2)c1)c1ccco1,inactive
16,Cc1cc(N2CCC(C(=O)N3CCN(c4cccc(C)c4C)CC3)CC2)n2ncnc2n1,"inconclusive [activator, partial curve, poor fit]"
17,CCC(=O)N(CC)c1nc(-c2ccc(OC)cc2)cs1,"inconclusive [activator, partial curve, poor fit]"
18,O=Cc1ccc(Sc2nnc(-c3ccccc3)o2)c([N+](=O)[O-])c1,active: 2.91 µM
19,CC(/C=C1\SC(=S)N(NC(=O)c2cccc(O)c2)C1=O)=C\c1ccccc1,active: 11.6 µM
20,O=C(CN1CCCC1)N1c2ccccc2Sc2ccc(C(F)(F)F)cc21,"inconclusive [activator, partial curve, poor fit]"
21,Cc1sc2nc(C3CC3)nc(N3CCN(C(=O)c4ccc(F)cc4)CC3)c2c1C,"inconclusive [activator, single point]"

row,Structure (SMILES),Potency
1,CCc1ccc(NC(=S)Nc2cccc3cnccc23)cc1,inactive
2,Cc1ccc(/C=C/C(=O)c2ccccc2O)cc1,"inconclusive [activator, single point]"
3,COCC1CCCN(Cc2cn(Cc3ccccc3)nc2-c2cc3ccccc3o2)C1 (configuration not stated),inactive
4,O=C(COc1ccccc1)N(Cc1cccs1)C1CCS(=O)(=O)C1 (configuration not stated),"inconclusive [activator, partial curve, poor fit]"
5,COc1cccc(CN2CCC(C(=O)Nc3ccc(-c4cccc(C)c4)cc3)CC2)c1O,"inconclusive [activator, partial curve]"
6,Cc1nc2ccc([N+](=O)[O-])cc2c(=O)n1Cc1ccc(Br)cc1,inactive
7,COc1ccc(C)cc1NC(=O)c1nnn(Cc2cccc(C(F)(F)F)c2)c1N,active: 2.06 µM
8,CC(NC(=O)c1ccc(CS(=O)(=O)c2ccc(Cl)cc2)o1)c1ccc2c(c1)OCCO2 (configuration not stated),"inconclusive [activator, single point]"
9,C=C(C)C(=O)NNc1ccccc1,"inconclusive [activator, single point]"
10,Cc1cccc(C(OC(=O)c2ccco2)C(=O)NCc2ccccc2)n1 (configuration not stated),"inconclusive [activator, single point]"
11,COc1cccc(C2CNC3(CCCC(C)C3)c3[nH]c4ccccc4c32)c1OC (configuration not stated),active: 18.4 µM
12,CCOc1ccc(OCc2ccc(C(=O)NC(C)(C)C)o2)cc1,"inconclusive [activator, single point]"
13,O=C(c1ccc(OC2CCN(C/C=C/c3ccc(F)cc3)CC2)cc1)N1CCCCC1,"inconclusive [activator, single point]"
14,COc1ccc2oc(C(=O)OCC(=O)NCc3ccccc3OC)c(C)c2c1,"inconclusive [activator, single point]"
15,CC(=O)Nc1ccc(NC(=O)CSc2nc3ccccc3nc2N2CCC(C)CC2)cc1,"inconclusive [activator, single point]"
16,COc1cc(-c2n[nH]c(=S)n2-c2ccc(C)cc2)cc(OC)c1OC,inactive
17,COc1ccc(CCN(C)C(=O)c2cc(S(=O)(=O)NCc3ccccc3)ccc2C)cc1OC,"inconclusive [activator, partial curve, poor fit]"
18,CC(C)C(C)(C#N)NC(=O)CSc1nc2scc(-c3ccco3)c2c(=O)n1-c1ccccc1 (configuration not stated),inactive
19,CCOc1ccc2oc(C(=O)NC3CC(C)(C)NC(C)(C)C3)c(C)c2c1,"inconclusive [activator, partial curve, poor fit]"
20,COc1ccc(S(=O)(=O)N(C)c2ccc(C(=O)NCC3CCCO3)cc2)cc1OC (configuration not stated),"inconclusive [activator, single point]"
21,Cc1ccc(-c2nc(CCN3C(=O)c4ccccc4C3=O)cs2)cc1,"inconclusive [activator, partial curve, poor fit]"
